# Assay results reported in the supplement of paper PMC8728848.
# This is one part of the list.
# Tests used:
# Experiment in all cases: glycan array binding signal (z-score within array); higher = stronger binding
# Conditions in all cases: glycan notation: IUPAC condensed, linker removed
# [1] = molecular target: Neu5Ac(a2-8)Neu5Ac
# Procedure, shortened: (§1)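 Arrays were curated from the Consortium for Functional Glycomics database, 3228 in total, and kept only where the protein sequence was available. Binding is expressed as a within-array Z-score. This score was averaged across arrays of the same protein sequence at different concentrations or buffers and across linkers, and negative values can be read as non-binding.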
# [2] = molecular target: Neu5Ac(a2-8)Neu5Ac(a2-3)Gal(b1-3)GalNAc(b1-4)[Neu5Ac(a2-3)]Gal(b1-4)Glc
# Procedure, shortened: as §1
# [3] = molecular target: Neu5Ac(a2-8)Neu5Ac(a2-3)Gal(b1-3)GalNAc(b1-4)[Neu5Ac(a2-8)Neu5Ac(a2-3)]Gal(b1-4)Glc
# Procedure, shortened: as §1
# [4] = molecular target: Neu5Ac(a2-8)Neu5Ac(a2-3)Gal(b1-4)Glc
# Procedure, shortened: as §1
# [5] = molecular target: Neu5Ac(a2-8)Neu5Ac(a2-3)Gal(b1-4)GlcNAc
# Procedure, shortened: as §1
# [6] = molecular target: Neu5Ac(a2-8)Neu5Ac(a2-3)[Gal(b1-3)GalNAc(b1-4)]Gal(b1-4)Glc
# Procedure, shortened: as §1
# [7] = molecular target: Neu5Ac(a2-8)Neu5Ac(a2-3)[GalNAc(b1-4)]Gal(b1-4)Glc
# Procedure, shortened: as §1
# [8] = molecular target: Neu5Ac(a2-8)Neu5Ac(a2-8)Neu5Ac
# Procedure, shortened: as §1
# [9] = molecular target: Neu5Ac(a2-8)Neu5Ac(a2-8)Neu5Ac(a2-3)Gal(b1-4)Glc
# Procedure, shortened: as §1
# [10] = molecular target: Neu5Ac(a2-8)Neu5Ac(a2-8)Neu5Ac(a2-3)[Gal(b1-3)GalNAc(b1-4)]Gal(b1-4)Glc
# Procedure, shortened: as §1
# [11] = molecular target: Neu5Ac(a2-8)Neu5Ac(a2-8)Neu5Ac(a2-3)[GalNAc(b1-4)]Gal(b1-4)Glc
# Procedure, shortened: as §1
# [12] = molecular target: Neu5Ac(a2-8)Neu5Ac(a2-8)Neu5Ac(a2-8)Neu5Ac(a2-3)[GalNAc(b1-4)]Gal(b1-4)Glc
# Procedure, shortened: as §1
# [13] = molecular target: Neu5Ac(a2-8)Neu5Gc(a2-3)Gal(b1-4)GlcNAc
# Procedure, shortened: as §1
# [14] = molecular target: Neu5Ac(b2-6)Gal(b1-4)GlcNAc
# Procedure, shortened: as §1
# [15] = molecular target: Neu5Ac(b2-6)GalNAc
# Procedure, shortened: as §1
# [16] = molecular target: Neu5Ac9Ac(a2-3)Gal(b1-3)GlcNAc
# Procedure, shortened: as §1
# [17] = molecular target: Neu5Ac9Ac(a2-3)Gal(b1-4)GlcNAc
# Procedure, shortened: as §1
# [18] = molecular target: Neu5Ac9Ac(a2-6)Gal(b1-4)GlcNAc
# Procedure, shortened: as §1
# [19] = molecular target: Neu5Gc(a2-3)Gal(b1-3)GlcNAc
# Procedure, shortened: as §1
# [20] = molecular target: Neu5Gc(a2-3)Gal(b1-3)[Fuc(a1-4)]GlcNAc
# Procedure, shortened: as §1
# [21] = molecular target: Neu5Gc(a2-3)Gal(b1-4)Glc
# Procedure, shortened: as §1
# [22] = molecular target: Neu5Gc(a2-3)Gal(b1-4)GlcNAc
# Procedure, shortened: as §1
# [23] = molecular target: Neu5Gc(a2-3)Gal(b1-4)GlcNAc(b1-3)Gal(b1-4)GlcNAc(b1-2)Man(a1-3)[Neu5Gc(a2-3)Gal(b1-4)GlcNAc(b1-3)Gal(b1-4)GlcNAc(b1-2)Man(a1-6)]Man(b1-4)GlcNAc(b1-4)GlcNAc
# Procedure, shortened: as §1
# [24] = molecular target: Neu5Gc(a2-3)Gal(b1-4)[Fuc(a1-3)]GlcNAc
# Procedure, shortened: as §1
# [25] = molecular target: Neu5Gc(a2-6)Gal(b1-4)GlcNAc
# Procedure, shortened: as §1
# [26] = molecular target: Neu5Gc(a2-6)GalNAc
# Procedure, shortened: as §1
# [27] = molecular target: Neu5Gc(a2-8)Neu5Ac(a2-3)Gal(b1-4)GlcNAc
# Procedure, shortened: as §1
# [28] = molecular target: Neu5Gc(a2-8)Neu5Gc(a2-3)Gal(b1-4)GlcNAc
# Procedure, shortened: as §1
# [29] = molecular target: Neu5Gc(a2-8)Neu5Gc(a2-3)Gal(b1-4)GlcNAc(b1-3)Gal(b1-4)GlcNAc
# Procedure, shortened: as §1
# [30] = molecular target: Neu5Gc(a2-8)Neu5Gc(a2-6)Gal(b1-4)GlcNAc
# Procedure, shortened: as §1
# [31] = molecular target: Neu5Gc(b2-6)Gal(b1-4)GlcNAc
# Procedure, shortened: as §1
binder,measurement,setting,value
Epa3to1 (Candida glabrata) (protein) MGSSHHHHHHSSGLVPRGSHMKRELSSQNPFGYPIGCSPQDVAIIPGLTMELYSYPIVSGTPPNCYDASYVDPEYPRTGYLKRKMVGKSTGVTGNLNYKYSVEKACMVKYGNLPAGYNYNEPLTVSNFTMILYGYFKAQTTGLHTFFVNADDLLYINFGAGNAFDCCKREDSKTKLGEYVAYDIWHVDSSKNKVSLFLEKDLYYPIRMFFNNREYDSSLDLSFSVNGATDQISDFSGYLYSVPDQPDTCPAHIGYDTTCR,glycan array binding signal (z-score),[1],-0.243
same,glycan array binding signal (z-score),[2],0.246
same,glycan array binding signal (z-score),[3],-0.377
same,glycan array binding signal (z-score),[4],-0.596
same,glycan array binding signal (z-score),[5],-0.418
same,glycan array binding signal (z-score),[6],-0.126
same,glycan array binding signal (z-score),[7],1.5
same,glycan array binding signal (z-score),[8],-0.101
same,glycan array binding signal (z-score),[9],0.154
same,glycan array binding signal (z-score),[10],-0.599
same,glycan array binding signal (z-score),[11],0.817
same,glycan array binding signal (z-score),[12],0.388
same,glycan array binding signal (z-score),[13],-0.798
same,glycan array binding signal (z-score),[14],-0.832
same,glycan array binding signal (z-score),[15],-0.426
same,glycan array binding signal (z-score),[16],-0.225
same,glycan array binding signal (z-score),[17],-0.428
same,glycan array binding signal (z-score),[18],0.523
same,glycan array binding signal (z-score),[19],-0.346
same,glycan array binding signal (z-score),[20],-0.353
same,glycan array binding signal (z-score),[21],0.281
same,glycan array binding signal (z-score),[22],-0.293
same,glycan array binding signal (z-score),[23],-0.254
same,glycan array binding signal (z-score),[24],-1.38
same,glycan array binding signal (z-score),[25],1.61
same,glycan array binding signal (z-score),[26],-0.399
same,glycan array binding signal (z-score),[27],-0.818
same,glycan array binding signal (z-score),[28],-0.541
same,glycan array binding signal (z-score),[29],0.126
same,glycan array binding signal (z-score),[30],-0.59
same,glycan array binding signal (z-score),[31],0.023
